This is an account of results in paper PMC12820563, “FoxP3 forms a head-to-head dimer in vivo and stabilizes its multimerization on adjacent microsatellites”.

This is one part of the list.

This experiment deals with T1, MBP-FoxP1dN (Mus musculus, UniProt P58462 326-579).
T1 sequence: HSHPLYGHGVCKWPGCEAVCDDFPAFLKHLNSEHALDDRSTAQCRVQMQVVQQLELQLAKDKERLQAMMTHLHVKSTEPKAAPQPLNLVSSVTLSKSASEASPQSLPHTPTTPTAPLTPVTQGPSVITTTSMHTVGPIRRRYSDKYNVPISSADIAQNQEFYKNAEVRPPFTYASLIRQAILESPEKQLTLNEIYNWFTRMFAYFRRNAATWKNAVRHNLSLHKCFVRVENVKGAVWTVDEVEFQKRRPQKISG
The experiment is described as follows: PD-seq (MBP pull-down with sequencing); 20 mM Tris-HCl pH 7.5, 100 mM NaCl, 1.5 mM MgCl2, 0.4 uM protein, 0.1 uM dsDNA library, 30 min, room temperature, amylose pull-down; high values mean tight binding. Particulars: protein: recombinant; tags: His6-MBP; chain copies: 2; dsDNA, one strand shown. The method in brief: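 Binding is the reads-per-million enrichment of pull-down relative to input, pooled across replicates. For this, 0.4 µM His6-MBP-tagged mouse FoxP3 or FoxP1 fragment lacking the N-terminus, made in E. coli, was incubated with 0.1 µM Klenow-filled double-stranded degenerate DNA library for 30 min at room temperature in Tris pH 7.5 buffer with NaCl and MgCl2. Complexes bound to amylose resin were washed three times before proteinase K released the DNA for PCR barcoding and Illumina sequencing.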
“GATGATTGTTCTCCCAGCTGATGAATTCTTAAATTCGAGTAAACAAATTTTCCTAATCTTTCTGTTCAAGCGCCATCTAC”: the binding signal is 0.955 RPM ratio (pull-down/input). For “GATGATTGTTCTCCCAGCTGATGAATTTTGATTTTCGAGTAAACAAATTTTCCTAATCTTTCTGTTCAAGCGCCATCTAC”, the binding signal was 1.13 RPM ratio (pull-down/input). Take “GATGATTGTTCTCCCAGCTGATGAATTTAACGGCTCGAGTAAACAAATTTTCCTAATCTTTCTGTTCAAGCGCCATCTAC”: the binding signal is 0.757 RPM ratio (pull-down/input). The same measure for “GATGATTGTTCTCCCAGCTGATGAATTCTGAAGTTCGAGTAAACAAATTTTCCTAATCTTTCTGTTCAAGCGCCATCTAC”: 0.865 RPM ratio (pull-down/input); for “GATGATTGTTCTCCCAGCTGATGAATTTCAGAAGTCGAGTAAACAAATTTTCCTAATCTTTCTGTTCAAGCGCCATCTAC”: 0.764 RPM ratio (pull-down/input). The same measure for “GATGATTGTTCTCCCAGCTGATGAATTCACGAAGTCGAGTAAACAAATTTTCCTAATCTTTCTGTTCAAGCGCCATCTAC”: 0.877 RPM ratio (pull-down/input); for “GATGATTGTTCTCCCAGCTGATGAATTCCAACCTTCGAGTAAACAAATTTTCCTAATCTTTCTGTTCAAGCGCCATCTAC”: 0.761 RPM ratio (pull-down/input); for “GATGATTGTTCTCCCAGCTGATGAATTGGATGAATCGAGTAAACAAATTTTCCTAATCTTTCTGTTCAAGCGCCATCTAC”: 0.957 RPM ratio (pull-down/input). To “GATGATTGTTCTCCCAGCTGATGAATTGCTGTACTCGAGTAAACAAATTTTCCTAATCTTTCTGTTCAAGCGCCATCTAC” belongs 1.01 RPM ratio (pull-down/input); to “GATGATTGTTCTCCCAGCTGATGAATTGTTCTAATCGAGTAAACAAATTTTCCTAATCTTTCTGTTCAAGCGCCATCTAC”, 1.41 RPM ratio (pull-down/input). For the sequence “GATGATTGTTCTCCCAGCTGATGAATTTATGAAGTCGAGTAAACAAATTTTCCTAATCTTTCTGTTCAAGCGCCATCTAC”, the binding signal was 1.07 RPM ratio (pull-down/input). The same measure for “GATGATTGTTCTCCCAGCTGATGAATTACTAAAGTCGAGTAAACAAATTTTCCTAATCTTTCTGTTCAAGCGCCATCTAC”: 1.21 RPM ratio (pull-down/input); for “GATGATTGTTCTCCCAGCTGATGAATTTTTAAAGTCGAGTAAACAAATTTTCCTAATCTTTCTGTTCAAGCGCCATCTAC”: 0.941 RPM ratio (pull-down/input). For the sequence “GATGATTGTTCTCCCAGCTGATGAATTACGTTCCTCGAGTAAACAAATTTTCCTAATCTTTCTGTTCAAGCGCCATCTAC”, the binding signal is 0.969 RPM ratio (pull-down/input).

As to “GATGATTGTTCTCCCAGCTGATGAATTAAAACTTTCGAGTAAACAAATTTTCCTAATCTTTCTGTTCAAGCGCCATCTAC”, the binding signal was 0.94 RPM ratio (pull-down/input). For the sequence “GATGATTGTTCTCCCAGCTGATGAATTAAGCGCTTCGAGTAAACAAATTTTCCTAATCTTTCTGTTCAAGCGCCATCTAC”, the binding signal is 0.889 RPM ratio (pull-down/input).

On to “GATGATTGTTCTCCCAGCTGATGAATTTCACCTGTCGAGTAAACAAATTTTCCTAATCTTTCTGTTCAAGCGCCATCTAC”, for which the binding signal is 0.749 RPM ratio (pull-down/input). With “GATGATTGTTCTCCCAGCTGATGAATTGTCCTCGTCGAGTAAACAAATTTTCCTAATCTTTCTGTTCAAGCGCCATCTAC”, the binding signal was 1.04 RPM ratio (pull-down/input).

“GATGATTGTTCTCCCAGCTGATGAATTTCTCAACTCGAGTAAACAAATTTTCCTAATCTTTCTGTTCAAGCGCCATCTAC”: the binding signal is 0.898 RPM ratio (pull-down/input). With “GATGATTGTTCTCCCAGCTGATGAATTAGTCGCTTCGAGTAAACAAATTTTCCTAATCTTTCTGTTCAAGCGCCATCTAC”, the binding signal was 0.918 RPM ratio (pull-down/input). To “GATGATTGTTCTCCCAGCTGATGAATTCTTGATATCGAGTAAACAAATTTTCCTAATCTTTCTGTTCAAGCGCCATCTAC” belongs 1.06 RPM ratio (pull-down/input); to “GATGATTGTTCTCCCAGCTGATGAATTTGTGGTGTCGAGTAAACAAATTTTCCTAATCTTTCTGTTCAAGCGCCATCTAC”, 1.21 RPM ratio (pull-down/input). The same measure for “GATGATTGTTCTCCCAGCTGATGAATTGACCCTATCGAGTAAACAAATTTTCCTAATCTTTCTGTTCAAGCGCCATCTAC”: 0.947 RPM ratio (pull-down/input). As for “GATGATTGTTCTCCCAGCTGATGAATTTAGGAGGTCGAGTAAACAAATTTTCCTAATCTTTCTGTTCAAGCGCCATCTAC”, the binding signal is 0.815 RPM ratio (pull-down/input). For “GATGATTGTTCTCCCAGCTGATGAATTTACCATATCGAGTAAACAAATTTTCCTAATCTTTCTGTTCAAGCGCCATCTAC”, the binding signal is 1.44 RPM ratio (pull-down/input). As to “GATGATTGTTCTCCCAGCTGATGAATTCTCCCCGTCGAGTAAACAAATTTTCCTAATCTTTCTGTTCAAGCGCCATCTAC”, the binding signal was 0.792 RPM ratio (pull-down/input). Turning to “GATGATTGTTCTCCCAGCTGATGAATTCATAAGTTCGAGTAAACAAATTTTCCTAATCTTTCTGTTCAAGCGCCATCTAC”, the binding signal was 0.89 RPM ratio (pull-down/input). The same measure for “GATGATTGTTCTCCCAGCTGATGAATTTCGGCCCTCGAGTAAACAAATTTTCCTAATCTTTCTGTTCAAGCGCCATCTAC”: 0.763 RPM ratio (pull-down/input); for “GATGATTGTTCTCCCAGCTGATGAATTTGGATAATCGAGTAAACAAATTTTCCTAATCTTTCTGTTCAAGCGCCATCTAC”: 1.14 RPM ratio (pull-down/input). To “GATGATTGTTCTCCCAGCTGATGAATTCTGCCAGTCGAGTAAACAAATTTTCCTAATCTTTCTGTTCAAGCGCCATCTAC” belongs 0.818 RPM ratio (pull-down/input); to “GATGATTGTTCTCCCAGCTGATGAATTATTCTCGTCGAGTAAACAAATTTTCCTAATCTTTCTGTTCAAGCGCCATCTAC”, 0.942 RPM ratio (pull-down/input).
